Publication PMC11861906, “Structural basis for lipid-mediated activation of G protein-coupled receptor GPR55” (Nature Communications, 2025)
“And” between values parts separate entries of the source, which are not always exact repeats. Identical values can stand only once.

System: mock-transfected HEK293H cells (empty pcDNA3.1(+), Gα13-Rluc8, wt Gβ3, Gγ9-GFP)
Test: BRET² G protein dissociation assay, mock-transfection plus G13-biosensor
Format: cell-based, human
Conditions: for BRET2 response, Mean (plotted, Fig. S4): mock-G13
Description: G protein dissociation assays were performed according to the original protocols of the TRUPATH BRET² assay[47],[87] but with subtle modifications as previously described[61],[88],[89]. All reagents and cells were obtained from Thermo Fisher Scientific unless indicated otherwise. The coding sequences for the G protein biosensors[47] (Gα12-Rluc8, Gα13-Rluc8, wt Gβ3, and Gγ9-GFP), the wt GPR55, the construct used for cryo-EM (with GFP bearing a G67A mutation to disrupt fluorescence properties[48] for BRET² assays), GPR55 binding pocket mutants (G152^4.56F, G152^4.56W, N171^ECL2Q, N171^ECL2A, T176^5.33A, R253^6.62A), and the wt TBXA2R were codon-optimized for Homo sapiens, gene-synthesized, and sub-cloned into pcDNA^TM3.1(+) between NheI and HindIII restriction sites by GeneArt (Thermo Fisher Scientific). […] Freshly grown cells were washed with Dulbecco’s Balanced Salt Solution (DPBS, cat. #14200075) and detached using trypsin-ethylenediaminetetraacetic acid (trypsin-EDTA) (cat. #25300-062). Then, the cells were reconstituted to 500,000 cells per mL with fresh medium, and 1,000,000 cells were seeded into each well of a 6-well plate. After 3 h incubation at 37 °C and 5% CO2, adherent cells were transfected with 600 ng DNA (1:1:1:1 ratio of plasmid DNA for GPR55, wt Gβ3, Gγ9-GFP, and Gα12-Rluc8 or Gα13-Rluc8). Plasmid DNA was mixed with 1.5 µL Lipofectamine^TM 2000 (cat. #11668027) in Opti-MEM^TM medium (cat. #31985062) and incubated for 20 min. Then, the mixture was added to each well of the 6-well plate following 24 h incubation at 37 °C and 5% CO2. Transfected cells were washed with DPBS, detached using EDTA (Versene, cat. #15040066), and reconstituted into fresh medium at 500,000 cells mL^−1. From this suspension, 50,000 cells were seeded into each well of a white-bottom 96-well plate (Nunc^TM MicroWell^TM 96 wells, cat. #136101) following overnight incubation at 37 °C and 5% CO2. Then, the adherent cells were washed with assay medium [Hank’s balanced salt solution (HBSS, cat. #14065056) plus 20 mM HEPES pH 7.4 (cat. #15630056)] and finally reconstituted into 50 µL of the same medium. […] Methoxy e-Coelenterazine was used as luciferase substrate (Prolume Purple, NanoLight Technology, cat. #369), reconstituted at 1 mM in methanol and diluted to 37.5 µM with assay buffer (7.5 µM final assay concentration). The assay was started by the addition of 20 µL luciferase substrate to each well of the assay plate using a Multidrop^TM Combi reagent dispenser (Thermo Fisher Scientific), followed by 5 min incubation at room temperature. Then, 30 µL of agonist dilutions or DMSO control was added (final DMSO concentration 1.5%), followed by an additional 5 min incubation at room temperature. BRET² measurements were performed with a PHERAstar® FSX microplate reader (BMG LABTECH) using a BRET² filter (donor emission 370–450 nm, acceptor emission 500–530 nm) at the maximum fluorescence gain of 3600. BRET² ratios were calculated by dividing GFP emission signals from Rluc8 emission counts. Buffer-DMSO controls were subtracted from each data point to calculate ΔBRET² ratios. The half-maximal effective concentration (potency, EC50) and maximal effect (efficacy, Emax) were determined by sigmoidal dose-response curve fit with variable slope.

For `Cc1cccc(N2CCN(C(=O)c3cc(S(=O)(=O)N(C)C)ccc3N3CCCC3)CC2)c1C` [ML184, 3-[[4-(2,3-dimethylphenyl)-1-piperazinyl]carbonyl]-N,N-dimethyl-4-(1-pyrrolidinyl)benzenesulfonamide], the “BRET2 response, Mean (plotted, Fig. S4)” value (concentration 300 pM) was 0.01533, the “BRET2 response, Mean (plotted, Fig. S4)” value (concentration 1e-9 M) was 0.003425 and the “BRET2 response, Mean (plotted, Fig. S4)” value (concentration 3e-9 M) was 0.005562. For the same compound, the “BRET2 response, Mean (plotted, Fig. S4)” value (concentration 1e-8 M) was 0.0053, the “BRET2 response, Mean (plotted, Fig. S4)” value (concentration 3e-8 M) was 0.009475 and the “BRET2 response, Mean (plotted, Fig. S4)” value (concentration 1e-7 M) was 0.01556. For the same compound, the “BRET2 response, Mean (plotted, Fig. S4)” value (concentration 3e-7 M) was 0.009975, the “BRET2 response, Mean (plotted, Fig. S4)” value (concentration 1e-6 M) was 0.01634 and the “BRET2 response, Mean (plotted, Fig. S4)” value (concentration 3e-6 M) was 0.01818. For the same compound, the “BRET2 response, Mean (plotted, Fig. S4)” value (concentration 1e-5 M) was 0.01609, the “BRET2 response, Mean (plotted, Fig. S4)” value (concentration 3e-5 M) was 0.02086 and the “Efficacy (%)” value (mock-transfection plus G13-biosensor, 30 µM ligand) was -9.73% and -15.78%.
